Screen size: about 190,000 compounds; about 520 (0.27%) were called active. The inconclusive results got no clear call from the source; some entries with a clear call stand among them for comparison.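 How the source made its calls: active means GTP binding activity at least 20 points away from the 100% control level, either lower or higher; inconclusive means compound flagged as likely green fluorescent, judged across all proteins; inactive means the rest.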
What follows are compounds tested against Ras-related C3 botulinum toxin substrate 1 (Homo sapiens) (UniProt P63000) (assay: wildtype Rac1 GTP binding modulators, primary screen, biochemical, GST-Rac1 beads, flow cytometry, multiplex (AID 757)). Details: fluorescent GTP binding, at 10 µM, actives lie on both sides, 0 = cold GTP competed, 100 = untreated.
For `Cc1ccccc1NCc1nnc2n1CCCCC2`, the GTP binding activity (% of control) was inactive: 101%. `COc1ccc(NC(=O)COC(=O)c2ccco2)c([N+](=O)[O-])c1` was tested, and the GTP binding activity (% of control) was inconclusive: 90%. In the case of `CC1(C)CC(=O)C=C(Nc2ccccc2O)C1`, the GTP binding activity (% of control) is reported as inconclusive: 107%. `O=C(O)c1csc(Cc2ccccc2)n1` was tested, and the GTP binding activity (% of control) was inconclusive: 110%. `COc1ccc(Cl)cc1NC(=O)CN1c2ccccc2CC1C` (centres undefined) was tested, and the GTP binding activity (% of control) was inconclusive: 94%. `COc1cc2[nH]c(=S)nc(NCCc3ccc(S(N)(=O)=O)cc3)c2cc1OC` was tested, and the GTP binding activity (% of control) was active: 40%. With `CC(C(=O)Nc1ccc(S(=O)(=O)N2CCOCC2)cc1)N1C(=O)C2CC=CCC2C1=O` (centres undefined) the GTP binding activity (% of control) was inactive: 98%. In the case of `Cc1ccc(COc2ccsc2C(=O)NNC(N)=S)cc1`, the GTP binding activity (% of control) is reported as inactive: 89%. `O=C(/C=C/c1ccccc1)NC(NC(=S)Nc1cccc(O)c1)C(Cl)(Cl)Cl` (centres undefined) was tested, and the GTP binding activity (% of control) was inactive: 100%. With `COc1ccc(NC(=O)/C(=C/c2cccnc2)NC(=O)c2cccs2)cc1` the GTP binding activity (% of control) was inactive: 100%. `CSc1ncccc1C(=O)Nc1nnc(C2CC2)s1` was tested, and the GTP binding activity (% of control) was inactive: 93%. For `Cc1cc(C(=O)Nn2c(-c3ccncc3)nc3ccccc3c2=O)ccc1[N+](=O)[O-]`, the GTP binding activity (% of control) was inactive: 86%. With `COc1ccc(CNC(=O)COC(=O)c2ccc(Br)cc2)cc1` the GTP binding activity (% of control) was inactive: 91%. `CCOC(=O)NC(c1ccc(C(C)C)cc1)C(Cl)(Cl)Cl` (centres undefined) was tested, and the GTP binding activity (% of control) was inconclusive: 103%. In the case of `Cc1ccc(C)c(NC(=O)CN(C)C(=O)c2nn(C)c(=O)c3ccccc23)c1`, the GTP binding activity (% of control) is reported as inactive: 96%. In the case of `CC(C)(C)NC(=O)CCN(/N=C/c1ccc([N+](=O)[O-])o1)C1=NS(=O)(=O)c2ccccc21`, the GTP binding activity (% of control) is reported as active: 50%. In the case of `COc1cc(/C(C)=N/NC(=O)C(O)(c2ccccc2)c2ccccc2)ccc1O`, the GTP binding activity (% of control) is reported as inactive: 99%. With `COC(=O)c1ccc(C)c(NC(=O)Cc2coc3cc(OC)ccc23)c1` the GTP binding activity (% of control) was inconclusive: 98%. In the case of `COc1cccc(/C=C/C(=O)Nc2ccccc2N2CCOCC2)c1`, the GTP binding activity (% of control) is reported as active: 48%. `COc1cc2ncnc(NCc3cccs3)c2cc1OC` was tested, and the GTP binding activity (% of control) was inactive: 91%. `O=C1C2C3C=CC(C3)C2C(=O)N1CNc1ccc(O)cc1` (centres undefined) was tested, and the GTP binding activity (% of control) was inconclusive: 89%. With `Cc1cc(=O)[nH]c(SCC(=O)N2CCN(S(=O)(=O)c3ccccc3)C2)n1` the GTP binding activity (% of control) was inactive: 100%. `CCn1cc(C(=O)NCc2ccco2)c(=O)c2cc(S(=O)(=O)N3CCCCCC3)ccc21` was tested, and the GTP binding activity (% of control) was inconclusive: 94%. For `O=[N+]([O-])c1cccc(S(=O)(=O)N2CCCC2)c1`, the GTP binding activity (% of control) was inconclusive: 110%. In the case of `Cn1cc(CN2CCC(C(=O)N3CCCCC3)CC2)c(-c2ccccc2F)n1`, the GTP binding activity (% of control) is reported as inactive: 100%. `Cc1ccc(OCC(=O)Nc2ccc(-c3nnc(-c4ccco4)o3)cc2)cc1` was tested, and the GTP binding activity (% of control) was inconclusive: 106%. `COCCn1c(SCC(=O)OC(C)C)nnc1-c1ccccc1` was tested, and the GTP binding activity (% of control) was inconclusive: 105%. In the case of `Cc1cc([N+](=O)[O-])nn1CC(=O)Nc1sc2c(c1C(N)=O)CCCC2`, the GTP binding activity (% of control) is reported as inconclusive: 83%. In the case of `COc1cccc(NC(=O)c2ccc3c(SCC(=O)O)c4c(nc3c2)CCCC4)c1`, the GTP binding activity (% of control) is reported as inconclusive: 88%. With `COc1cc(N2CCCC2)c(OC)cc1/C=C(/C#N)c1cccc(F)c1` the GTP binding activity (% of control) was inconclusive: 139%. `O=C(c1cc2nc(-c3ccc(Cl)cc3)cc(C(F)(F)F)n2n1)N1CCOCC1` was tested, and the GTP binding activity (% of control) was inactive: 97%. For `Cc1c(C(c2ccccc2O)c2c(C)n(C)n(-c3ccccc3)c2=O)c(=O)n(-c2ccccc2)n1C`, the GTP binding activity (% of control) was inconclusive: 93%. `Cc1ccc(Nc2cnn(C34CC5CC(CC(CC(=O)O)(C5)C3)C4)c(=O)c2Cl)c(Cl)c1` was tested, and the GTP binding activity (% of control) was inactive: 101%. In the case of `CC(C)(C)NC(=O)CSc1nc(N)c(-c2ccccc2)c(=O)[nH]1`, the GTP binding activity (% of control) is reported as inconclusive: 95%. `O=C1CC(C2CCCO2)C(=O)N1c1ccc(Cl)c(Cl)c1` (centres undefined) was tested, and the GTP binding activity (% of control) was inactive: 98%. With `CCOC(=O)c1cnc(-n2[nH]c(C)cc2=O)[nH]c1=O` the GTP binding activity (% of control) was inconclusive: 94%. With `Cc1ccc(N2C(=O)CC(Sc3ccccc3C(=O)O)C2=O)cc1C` (centres undefined) the GTP binding activity (% of control) was inactive: 98%. With `COc1ccc(/C=C/c2nc3cc(-c4ccccc4)ccc3o2)cc1O` the GTP binding activity (% of control) was inconclusive: 103%. `COc1ccc(NC(=O)CSc2nnc(C3CC3)n2N)cc1` was tested, and the GTP binding activity (% of control) was inconclusive: 103%. With `Cc1csc(N(C(=O)Cc2ccccc2F)c2ccccc2)n1` the GTP binding activity (% of control) was inconclusive: 103%. `COc1cc(NC(=O)C2CCN(S(=O)(=O)c3cnc[nH]3)CC2)cc(OC)c1OC` was tested, and the GTP binding activity (% of control) was inconclusive: 107%. `O=C(CCNC(=O)c1ccccc1)N=Nc1c(O)[nH]c2ccccc12` was tested, and the GTP binding activity (% of control) was inconclusive: 93%. With `O=C(CCCCn1c(=S)[nH]c2ccsc2c1=O)NCc1ccc2c(c1)OCO2` the GTP binding activity (% of control) was inconclusive: 92%. `CC1Cc2ccccc2N1C(=O)COC(=O)CCc1nc2ccccc2c(=O)[nH]1` (centres undefined) was tested, and the GTP binding activity (% of control) was inactive: 96%. In the case of `O=C(CCC(=O)N(CC(=O)NC1CCCC1)Cc1cccs1)Nc1nccs1`, the GTP binding activity (% of control) is reported as inactive: 99%. With `Cc1nn(-c2ccc(F)cc2)c(Cl)c1/C=C(\CCC(=O)O)c1nc2ccccc2s1` the GTP binding activity (% of control) was active: 72%. `COC(=O)CSc1ccc2nnc(-c3ccc(F)cc3)n2n1` was tested, and the GTP binding activity (% of control) was inconclusive: 109%. `COc1ccc(Cn2c(O)c(/C=N/NC(=O)c3cccnc3)c3ccccc3c2=O)cc1` was tested, and the GTP binding activity (% of control) was active: 60%. With `Cn1c(N)c(C(=O)NCc2ccccc2)sc1=S` the GTP binding activity (% of control) was inconclusive: 102%. In the case of `O=C(CN1CCOCC1)Nc1ccccc1NC(=O)C1CCN(c2ncccn2)CC1`, the GTP binding activity (% of control) is reported as inconclusive: 99%. In the case of `COc1ccc(/C=C/CN2CCCC(CO)(Cc3cccc(Cl)c3)C2)cc1` (centres undefined), the GTP binding activity (% of control) is reported as inactive: 99%. For `Cc1csc(SCC(=O)N(C)CC(=O)Nc2ccc(F)cc2)n1`, the GTP binding activity (% of control) was inactive: 97%. `CCOCC(=O)Nc1nnc(C2CCCCC2)s1` was tested, and the GTP binding activity (% of control) was inconclusive: 102%. In the case of `COc1cccc(-c2cc(C(F)(F)F)nc(-n3ccc([N+](=O)[O-])n3)n2)c1`, the GTP binding activity (% of control) is reported as inconclusive: 96%. In the case of `O=C(O)c1cccc(NC(=S)N/N=C/c2cccc(O)c2)c1`, the GTP binding activity (% of control) is reported as inconclusive: 89%. With `O=C(CCCn1c(=O)[nH]c2ccc(Br)cc2c1=O)NCc1ccc(Cl)cc1` the GTP binding activity (% of control) was inactive: 98%. `c1ccc(CNC2=NCCC2)nc1` was tested, and the GTP binding activity (% of control) was inconclusive: 109%. `COc1ccc(N(CC(=O)Nc2ccccc2C(=O)NCCc2ccccc2)S(C)(=O)=O)cc1OC` was tested, and the GTP binding activity (% of control) was inactive: 101%. `COC(=O)c1c(NC(=O)/C=C/C(=O)O)sc(C)c1-c1ccc(C)c(C)c1` was tested, and the GTP binding activity (% of control) was inconclusive: 89%.
